# From PubChem BioAssay AID1030 (National Center for Advancing Translational Sciences (NCATS), 2008)
# Out of some 220,000 compounds screened, about 16,000 (7.3%) were called active. Inconclusive results, whose numbers are uncertain, are shown with a selection of clear calls. The call rests on the fitted dose curve; in most records, active means well fitted inhibition curve with a large enough effect (not every such curve was filed as active); inconclusive means small, poorly fitted or top-dose-only effect, or another doubt; inactive means no such curve, though single readings can be large or run the other way. Potencies of inconclusive entries are left out as doubtful fits.
# Molecular target: Aldehyde dehydrogenase 1A1 (Homo sapiens) (UniProt P00352)
# Experiment: qHTS Assay for Inhibitors of Aldehyde Dehydrogenase 1 (ALDH1A1)
# Settings: Purified ALDH1A1, NADH fluorescence, propionaldehyde substrate; series mostly up to 75.3 µM
# Potency means the concentration at half of the fitted maximal effect; tags describe the fitted curve by direction and shape.
# Chain of UniProt P00352 (P00352 whole entry, looked up): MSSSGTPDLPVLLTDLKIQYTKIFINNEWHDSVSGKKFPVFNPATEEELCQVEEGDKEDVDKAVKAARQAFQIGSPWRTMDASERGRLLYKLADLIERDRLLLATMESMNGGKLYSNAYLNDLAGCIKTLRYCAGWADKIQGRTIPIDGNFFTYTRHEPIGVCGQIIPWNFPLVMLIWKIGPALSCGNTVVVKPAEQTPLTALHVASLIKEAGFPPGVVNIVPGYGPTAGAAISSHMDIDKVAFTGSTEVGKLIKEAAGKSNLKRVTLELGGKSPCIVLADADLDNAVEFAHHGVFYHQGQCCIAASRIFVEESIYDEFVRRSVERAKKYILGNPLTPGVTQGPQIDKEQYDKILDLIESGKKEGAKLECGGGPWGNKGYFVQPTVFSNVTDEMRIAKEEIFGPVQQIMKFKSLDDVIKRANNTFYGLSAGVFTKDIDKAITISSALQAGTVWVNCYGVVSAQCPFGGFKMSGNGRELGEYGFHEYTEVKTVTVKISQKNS
row,SMILES,Potency
1,COCCCn1c(C)nnc1SCc1ccc(C(C)(C)C)cc1,inactive
2,CN(O)/C=C/C(=O)c1ccc(Br)cc1,active: 12.6 µM
3,COc1ccc(Oc2cnn(-c3ccccc3)c(=O)c2Br)cc1,active: 25.1 µM
4,Cc1cc(S(=O)(=O)NCC(C)C)ccc1OCC(=O)N1CCOCC1,"inconclusive [inhibitor, single point]"
5,CCCN=Cc1ccc(O)cc1,active: 8.91 µM
6,COc1ccccc1-c1cc(C(=O)N/N=C/c2cccs2)c2ccccc2n1,"inconclusive [inhibitor, single point]"
7,C/C(=C\c1ccccc1)C(=O)NCCc1ccccc1,"inconclusive [inhibitor, single point]"
8,OC(CNCc1ccccc1F)(c1ccc(F)cc1)c1ccc(F)cc1,inactive
9,CCc1nnc(NC(=O)c2ccc(S(=O)(=O)NC3CCCCC3)cc2)s1,"inconclusive [inhibitor, single point]"
10,CCOC(=O)C1(Cc2ccc(OC)cc2)CCN(C(=O)CCN2CCCC2=O)CC1,"inconclusive [inhibitor, single point]"
11,CCCOc1ccc(/C(O)=C2\C(=O)C(=O)N(CCCOC)C23C(=O)N(C)c2ccccc23)cc1 (centres undefined),inactive
12,Cc1ccc(CNC(=O)CCC2CCCN(Cc3cccc4cccnc34)C2)o1 (centres undefined),"inconclusive [inhibitor, single point]"
13,O=[N+]([O-])c1nn(-c2ccc3c(c2)OCCO3)n(O)c1=NC1CCCCC1,"inconclusive [inhibitor, single point]"
14,CNc1nc(-c2ccccc2)cc(C)c1S(C)(=O)=O,"inconclusive [inhibitor, partial curve]"
15,COc1cc(/C=N/NC(=O)c2sc(N)c(C#N)c2C)cc(Br)c1O,active: 12.6 µM
16,O=C(O)C1CCCCC1C(=O)Nc1cccc(C(=O)N2CCCCC2)c1 (centres undefined),inactive
17,COc1ccc(S(=O)(=O)NCc2ccccn2)c(Cl)c1Cl,"inconclusive [inhibitor, single point]"
18,CCOC(=O)C1=C(c2ccccc2)NC(SCC(=O)Nc2cccc(C)c2)=C(C#N)C1c1ccco1 (centres undefined),"inconclusive [inhibitor, partial curve]"
19,CC1=NNC(=O)C1CCC(=O)N/N=C\c1ccccc1[N+](=O)[O-] (centres undefined),inactive
20,O=C(Nc1ccc(F)cc1)C(c1ccccc1)N1CCN(C(=O)c2ccco2)CC1 (centres undefined),active: 5.01 µM
21,COc1ccccc1-c1nc(C#N)c(N2CCN(c3ccccc3)CC2)o1,"inconclusive [inhibitor, single point]"
22,CC(C)CCn1cnc2c([nH]c3cccc(Cl)c32)c1=O,"inconclusive [inhibitor, partial curve]"
23,Cc1ccc(NC(=O)CC2=NC(=O)C(CC(=O)Nc3ccccc3C)S2)cc1 (centres undefined),"inconclusive [inhibitor, single point]"
24,CCOc1ccc(N=Cc2c(O)cc(C)oc2=O)cc1,inactive
25,Cc1ccc(/C=N/Nc2cc(C)nc(NCc3ccccc3)n2)cc1,inactive

row,SMILES,Potency
1,Cn1c(-c2ccc(N)cc2)nc2ccccc21,"inconclusive [inhibitor, full curve]"
2,COCCn1c(SCCCc2ccccc2)nc2c1c(=O)[nH]c(=O)n2C,active: 20 µM
3,O=C1CCCc2nc3nc4ccccc4n3cc21,"inconclusive [inhibitor, single point]"
4,CC(NC(=O)COc1ccc(Br)cc1)C(=O)O (centres undefined),active: 10 µM
5,CN(CCc1ccccn1)C(=S)NC(=O)c1ccco1,"inconclusive [inhibitor, single point]"
6,O=C(CCNc1n[nH]c(=O)[nH]c1=O)N/N=C/c1ccc(Cl)cc1,inactive
7,Cc1c(CCC(=O)O)c(=O)oc2cc3occ(-c4ccccc4)c3cc12,inactive
8,CCOC(=O)/C(C#N)=C1\C=CN(C)C(C)=N1,inactive
9,COC(=O)c1nc2ccccc2s1,"inconclusive [inhibitor, single point]"
10,CCCCNc1nc2c(c(=O)n(C)c(=O)n2C)n1Cc1cccc(OC)c1,inactive
11,COc1cc(C2Nc3ccccc3C(=O)N2c2ccccc2OC)ccc1O (centres undefined),"inconclusive [inhibitor, single point]"
12,CC(=O)Nc1ccc(-c2cn3cccnc3n2)cc1,"inconclusive [inhibitor, partial curve]"
13,Cc1ccc(C2(C)CC(C)(C)N(C(=O)CSc3nnc(C)s3)c3ccccc32)cc1 (centres undefined),"inconclusive [inhibitor, single point]"
14,O=C(CN1CCN(S(=O)(=O)/C=C/c2ccccc2)CC1)NC(=O)NCc1ccco1,"inconclusive [inhibitor, single point]"
15,Cc1nnn(C23CC4CC(CC(CC(=O)Nc5cccc(F)c5)(C4)C2)C3)n1,"inconclusive [inhibitor, single point]"
16,COCc1cc(C)nc2sc(C(=O)NN)c(-n3cccc3)c12,active: 0.501 µM
17,O=C1c2ccsc2SCCN1Cc1ccc(Cl)cc1Cl,"inconclusive [inhibitor, single point]"
18,COCCN(CCOC)S(=O)(=O)c1ccc(C(=O)Nc2nnc(COC)o2)cc1,"inconclusive [inhibitor, single point]"
19,Cc1ccc(Nc2nc3c([nH]2)c(=O)[nH]c(=O)n3C)cc1,"inconclusive [inhibitor, single point]"
20,Cc1noc(C)c1COC(=O)COc1ccc(-c2ccccc2)cc1,inactive
21,CNC1CC(N)[C@H](O)[C@@H](O[C@@H]2OC(CO)C3OC4(OC(C(N)CO)C(O)C(O)C4O)O[C@@H]3[C@H]2O)C1O (some centres undefined),inactive
22,Cc1ccnc(N2CCC(C(=O)Nc3cccc(C(F)(F)F)c3)CC2)n1,inactive
23,O=C(NC(=S)Nc1cccnc1Cl)c1ccco1,"inconclusive [inhibitor, single point]"
24,COC(=O)c1c(C(=O)OC)c(-c2ccc(Cl)c(Cl)c2)n2c1CCC2,"inconclusive [inhibitor, single point]"
25,CC(C)OCCCNC(=O)NC(=O)c1ccc(Cl)cc1,inactive

row,SMILES,Potency
1,Oc1c(Cl)cc(Cl)cc1/C=N/NC(=S)NC1CC2C=CC1C2 (centres undefined),"inconclusive [inhibitor, partial curve]"
2,Cc1ccc(C(=O)N(Cc2nc3ccccc3c(=O)[nH]2)C2CCCC2)cc1,"inconclusive [inhibitor, partial curve]"
3,COC(=O)C1=C(C)Nc2nnnn2C1c1ccc(Cl)cc1Cl (centres undefined),active: 8.91 µM
4,COc1cccc(/C=C/C(=O)NCc2ccc(S(N)(=O)=O)cc2)c1,"inconclusive [inhibitor, partial curve]"
5,CC(C)CCn1c(N)c(S(=O)(=O)c2cccs2)c2nc3ccccc3nc21,"inconclusive [inhibitor, partial curve]"
6,Cc1ccc(F)cc1NCC(=O)Nc1ccc(Br)cc1,"inconclusive [inhibitor, single point]"
7,CC1CCCCN1CC(=O)c1c(N)n(Cc2ccccc2)c(=O)n(C)c1=O (centres undefined),inactive
8,COc1cc(NS(=O)(=O)c2ccc(Cl)cc2)c(C(=O)O)cc1OC,"inconclusive [inhibitor, single point]"
9,C(=N\N1CCN(Cc2ccccc2)CC1)/c1cccnc1,inactive
10,CC(C)(C)NC(=O)CSc1nnc(NC(=O)CCn2cnc3ccccc3c2=O)s1,inactive
11,Cc1ccc(NC(=O)CSc2ncc3ccccn23)cc1,"inconclusive [inhibitor, partial curve]"
12,O=C(Oc1ccccc1C(=O)Oc1ccccc1)c1ccco1,"inconclusive [inhibitor, single point]"
13,CC(C)OC(=O)c1cc(=O)[nH]c2ccccc12,"inconclusive [inhibitor, single point]"
14,CC(=O)c1ccc(N2CCN(c3ccc(S(=O)(=O)NCCCN(C)C)cc3[N+](=O)[O-])CC2)cc1,active: 18.9 µM
15,Cc1ccc(S(=O)(=O)[N-]c2nc3ccccc3nc2-n2cc[n+](CCC(C)C)c2)cc1,"inconclusive [inhibitor, partial curve]"
16,O=C(CCS(=O)(=O)c1cccc2nonc12)NCc1ccc(Cl)cc1,active: 8.91 µM
17,COCCn1c(SCC(=O)c2[nH]c(C)c(C(C)=O)c2C)nc2ccccc21,"inconclusive [inhibitor, single point]"
18,Cc1cccc(Cn2c(=O)n(CCCC(=O)NCc3ccco3)c(=O)c3ccccc32)c1,"inconclusive [inhibitor, partial curve]"
19,CCn1c(C)nc2cc(C(=O)NNC(=S)Nc3ccccc3OC)ccc21,"inconclusive [inhibitor, single point]"
20,CC(C)(C)NNC(=S)Nc1ccc(S(=O)(=O)N2CCOCC2)cc1,"inconclusive [inhibitor, single point]"
21,COc1ccccc1Nc1nc(C)cs1,active: 17.8 µM
22,CN(C(=O)COc1cc(C(F)(F)F)nn1C)c1ccccc1,"inconclusive [inhibitor, partial curve]"
23,CC1CCC/C(=N/Nc2ccc([N+](=O)[O-])cc2[N+](=O)[O-])C1 (centres undefined),"inconclusive [inhibitor, partial curve]"
24,O=C(CNC(=S)N(Cc1ccc(F)cc1)C1CCCCC1)NC1CC1,"inconclusive [inhibitor, partial curve]"
